# Measurements reported in the supplement of paper PMC8728848.
# Some of the results follow.
# What was measured:
# Assay in all cases: glycan array binding signal (z-score within array); higher = stronger binding
# Conditions in all cases: glycan notation: IUPAC condensed, linker removed
# [1] = biological target: Fuc(a1-2)[GalNAc(a1-3)]Gal(b1-3)GlcNAc(b1-3)GalNAc
# Procedure, shortened: (§1)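 The binding signal is a Z-score computed within each array and averaged over linkers. Arrays of the same protein sequence at different concentrations or buffers were also averaged together. Data originate from 3228 arrays in the Consortium for Functional Glycomics database, kept only where the protein sequence was available.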
# [2] = biological target: Fuc(a1-2)[GalNAc(a1-3)]Gal(b1-3)GlcNAc(b1-6)GalNAc
# Procedure, shortened: as §1
# [3] = biological target: Fuc(a1-2)[GalNAc(a1-3)]Gal(b1-4)Glc
# Procedure, shortened: as §1
# [4] = biological target: Fuc(a1-2)[GalNAc(a1-3)]Gal(b1-4)GlcNAc
# Procedure, shortened: as §1
# [5] = biological target: Fuc(a1-2)[GalNAc(a1-3)]Gal(b1-4)GlcNAc(b1-2)Man
# Procedure, shortened: as §1
# [6] = biological target: Fuc(a1-2)[GalNAc(a1-3)]Gal(b1-4)GlcNAc(b1-2)Man(a1-3)[Fuc(a1-2)[GalNAc(a1-3)]Gal(b1-4)GlcNAc(b1-2)Man(a1-6)]Man(b1-4)GlcNAc(b1-4)GlcNAc
# Procedure, shortened: as §1
# [7] = biological target: Fuc(a1-2)[GalNAc(a1-3)]Gal(b1-4)GlcNAc(b1-2)Man(a1-3)[Fuc(a1-2)[GalNAc(a1-3)]Gal(b1-4)GlcNAc(b1-2)Man(a1-6)]Man(b1-4)GlcNAc(b1-4)[Fuc(a1-6)]GlcNAc
# Procedure, shortened: as §1
# [8] = biological target: Fuc(a1-2)[GalNAc(a1-3)]Gal(b1-4)GlcNAc(b1-3)Gal(b1-4)GlcNAc
# Procedure, shortened: as §1
# [9] = biological target: Fuc(a1-2)[GalNAc(a1-3)]Gal(b1-4)GlcNAc(b1-3)Gal(b1-4)GlcNAc(b1-3)Gal(b1-4)GlcNAc
# Procedure, shortened: as §1
# [10] = biological target: Fuc(a1-2)[GalNAc(a1-3)]Gal(b1-4)GlcNAc(b1-3)GalNAc
# Procedure, shortened: as §1
# [11] = biological target: Fuc(a1-2)[GalNAc(a1-3)]Gal(b1-4)GlcNAc(b1-3)[Fuc(a1-2)[GalNAc(a1-3)]Gal(b1-4)GlcNAc(b1-6)]GalNAc
# Procedure, shortened: as §1
# [12] = biological target: Fuc(a1-2)[GalNAc(a1-3)]Gal(b1-4)GlcNAc(b1-6)GalNAc
# Procedure, shortened: as §1
# [13] = biological target: Fuc(a1-2)[GalNAc(a1-3)]Gal(b1-4)[Fuc(a1-3)]GlcNAc
# Procedure, shortened: as §1
# [14] = biological target: Fuc(a1-2)[GalNAc(a1-3)]Gal(b1-4)[Fuc(a1-3)]GlcNAc(b1-3)GalNAc
# Procedure, shortened: as §1
# [15] = biological target: Fuc(a1-2)[GalNAc(a1-4)]Gal(b1-4)GlcNAc
# Procedure, shortened: as §1
# [16] = biological target: Fuc(a1-2)[GalNAc(b1-3)]Gal
# Procedure, shortened: as §1
# Fuc(a1-3)GlcNAc = biological target: Fuc(a1-3)GlcNAc
# Procedure, shortened: as §1
# [17] = biological target: Fuc(a1-3)[Gal(b1-4)]Glc6S
# Procedure, shortened: as §1
# [18] = biological target: Fuc(a1-3)[Gal(b1-4)]GlcNAc
# Procedure, shortened: as §1
# [19] = biological target: Fuc(a1-3)[Gal(b1-4)]GlcNAc(b1-2)Man
# Procedure, shortened: as §1
# [20] = biological target: Fuc(a1-3)[Gal(b1-4)]GlcNAc(b1-2)Man(a1-3)[Fuc(a1-3)[Gal(b1-4)]GlcNAc(b1-2)Man(a1-6)]Man(b1-4)GlcNAc(b1-4)GlcNAc
# Procedure, shortened: as §1
# [21] = biological target: Fuc(a1-3)[Gal(b1-4)]GlcNAc(b1-2)Man(a1-3)[Fuc(a1-3)[Gal(b1-4)]GlcNAc(b1-2)Man(a1-6)]Man(b1-4)GlcNAc(b1-4)[Fuc(a1-6)]GlcNAc
# Procedure, shortened: as §1
# [22] = biological target: Fuc(a1-3)[Gal(b1-4)]GlcNAc(b1-3)Gal(b1-3)[Fuc(a1-4)]GlcNAc
# Procedure, shortened: as §1
# [23] = biological target: Fuc(a1-3)[Gal(b1-4)]GlcNAc(b1-3)Gal(b1-4)[Fuc(a1-3)]GlcNAc
# Procedure, shortened: as §1
# [24] = biological target: Fuc(a1-3)[Gal(b1-4)]GlcNAc(b1-3)Gal(b1-4)[Fuc(a1-3)]GlcNAc(b1-3)Gal(b1-4)[Fuc(a1-3)]GlcNAc
# Procedure, shortened: as §1
# [25] = biological target: Fuc(a1-3)[Gal(b1-4)]GlcNAc(b1-3)GalNAc
# Procedure, shortened: as §1
# [26] = biological target: Fuc(a1-3)[Gal(b1-4)]GlcNAc(b1-6)GalNAc
# Procedure, shortened: as §1
# [27] = biological target: Fuc(a1-3)[Gal(b1-4)]GlcNAc(b1-6)[Gal(b1-3)GlcNAc(b1-3)]Gal(b1-4)Glc
# Procedure, shortened: as §1
# [28] = biological target: Fuc(a1-3)[Gal(b1-4)]GlcNAc6S
# Procedure, shortened: as §1
# [29] = biological target: Fuc(a1-3)[Gal3S(b1-4)]Glc
# Procedure, shortened: as §1
# [30] = biological target: Fuc(a1-3)[Gal3S(b1-4)]GlcNAc
# Procedure, shortened: as §1
# [31] = biological target: Fuc(a1-3)[Gal3S(b1-4)]GlcNAc6S
# Procedure, shortened: as §1
# [32] = biological target: Fuc(a1-3)[GalNAc(b1-4)]GlcNAc
# Procedure, shortened: as §1
# [33] = biological target: Fuc(a1-3)[GalNAc(b1-4)]GlcNAc6S
# Procedure, shortened: as §1
# Fuc(a1-4)GlcNAc = biological target: Fuc(a1-4)GlcNAc
# Procedure, shortened: as §1
# Fuc(b1-3)GlcNAc = biological target: Fuc(b1-3)GlcNAc
# Procedure, shortened: as §1
# Gal(a1-2)Gal = biological target: Gal(a1-2)Gal
# Procedure, shortened: as §1
binder,measurement,setting,value
DC-ASGPR Long (Homo sapiens) (protein) MTRTYENFQYLENKVKVQGFKNGPLPLQSLLQRLRSGPCHLLLSLGLGLLLLVIICVVGFQNSKFQRDLVTLRTDFSNFTSNTVAEIQALTSQGSSLEETIASLKAEVEGFKQERQAGVSELQEHTTQKAHLGHCPHCPSVCVPVHSEMLLRVQQLVQDLKKLTCQVATLNNNASTEGTCCPVNWVEHQDSCYWFSHSGMSWAEAEKYCQLKNAHLVVINSREEQNFVQKYLGSAYTWMGLSDPEGAWKWVDGTDYATGFQNWKPGQPDDWQGHGLGGGEDCAHFHPDGGWNDDVCQRPYHWVCEAGLGQTSQESH,glycan array binding signal (z-score),[1],-0.324
same,glycan array binding signal (z-score),[2],2.6
same,glycan array binding signal (z-score),[3],-0.051
same,glycan array binding signal (z-score),[4],0.574
same,glycan array binding signal (z-score),[5],0.051
same,glycan array binding signal (z-score),[6],0.121
same,glycan array binding signal (z-score),[7],-0.197
same,glycan array binding signal (z-score),[8],-0.618
same,glycan array binding signal (z-score),[9],-0.36
same,glycan array binding signal (z-score),[10],-0.432
same,glycan array binding signal (z-score),[11],0.501
same,glycan array binding signal (z-score),[12],5.11
same,glycan array binding signal (z-score),[13],-0.338
same,glycan array binding signal (z-score),[14],-0.494
same,glycan array binding signal (z-score),[15],3.67
same,glycan array binding signal (z-score),[16],5.95
same,glycan array binding signal (z-score),Fuc(a1-3)GlcNAc,-0.379
same,glycan array binding signal (z-score),[17],-0.444
same,glycan array binding signal (z-score),[18],-0.353
same,glycan array binding signal (z-score),[19],-0.169
same,glycan array binding signal (z-score),[20],0.96
same,glycan array binding signal (z-score),[21],-0.507
same,glycan array binding signal (z-score),[22],0.105
same,glycan array binding signal (z-score),[23],-0.719
same,glycan array binding signal (z-score),[24],-0.281
same,glycan array binding signal (z-score),[25],-0.143
same,glycan array binding signal (z-score),[26],0.785
same,glycan array binding signal (z-score),[27],0.019
same,glycan array binding signal (z-score),[28],-0.22
same,glycan array binding signal (z-score),[29],0.219
same,glycan array binding signal (z-score),[30],-0.08
same,glycan array binding signal (z-score),[31],0.1
same,glycan array binding signal (z-score),[32],1.59
same,glycan array binding signal (z-score),[33],0.742
same,glycan array binding signal (z-score),Fuc(a1-4)GlcNAc,-0.267
same,glycan array binding signal (z-score),Fuc(b1-3)GlcNAc,-0.173
same,glycan array binding signal (z-score),Gal(a1-2)Gal,-0.325
